# According to paper PMC4336329 (PLoS ONE, 2015):
# Out of some 310,000 compounds screened, about 14,000 (4.5%) showed an effect of 50% or more. Effects have a minus sign here. Some of the results follow. Where a SMILES comes first, the peptide text is derived from it. [ ]: non-standard residue; d: D form. The star is where a group is joined. ξ: configuration not given here. ξPhe(4-Me) = Cc1ccc(CC(N)C(=O)O)cc1; Bz = O=C(c1ccccc1)*
# Molecular target: human ether-à-go-go-related gene (hERG) potassium channel (human, UniProt Q12809)
# Sequence (Q12809 whole entry, looked up): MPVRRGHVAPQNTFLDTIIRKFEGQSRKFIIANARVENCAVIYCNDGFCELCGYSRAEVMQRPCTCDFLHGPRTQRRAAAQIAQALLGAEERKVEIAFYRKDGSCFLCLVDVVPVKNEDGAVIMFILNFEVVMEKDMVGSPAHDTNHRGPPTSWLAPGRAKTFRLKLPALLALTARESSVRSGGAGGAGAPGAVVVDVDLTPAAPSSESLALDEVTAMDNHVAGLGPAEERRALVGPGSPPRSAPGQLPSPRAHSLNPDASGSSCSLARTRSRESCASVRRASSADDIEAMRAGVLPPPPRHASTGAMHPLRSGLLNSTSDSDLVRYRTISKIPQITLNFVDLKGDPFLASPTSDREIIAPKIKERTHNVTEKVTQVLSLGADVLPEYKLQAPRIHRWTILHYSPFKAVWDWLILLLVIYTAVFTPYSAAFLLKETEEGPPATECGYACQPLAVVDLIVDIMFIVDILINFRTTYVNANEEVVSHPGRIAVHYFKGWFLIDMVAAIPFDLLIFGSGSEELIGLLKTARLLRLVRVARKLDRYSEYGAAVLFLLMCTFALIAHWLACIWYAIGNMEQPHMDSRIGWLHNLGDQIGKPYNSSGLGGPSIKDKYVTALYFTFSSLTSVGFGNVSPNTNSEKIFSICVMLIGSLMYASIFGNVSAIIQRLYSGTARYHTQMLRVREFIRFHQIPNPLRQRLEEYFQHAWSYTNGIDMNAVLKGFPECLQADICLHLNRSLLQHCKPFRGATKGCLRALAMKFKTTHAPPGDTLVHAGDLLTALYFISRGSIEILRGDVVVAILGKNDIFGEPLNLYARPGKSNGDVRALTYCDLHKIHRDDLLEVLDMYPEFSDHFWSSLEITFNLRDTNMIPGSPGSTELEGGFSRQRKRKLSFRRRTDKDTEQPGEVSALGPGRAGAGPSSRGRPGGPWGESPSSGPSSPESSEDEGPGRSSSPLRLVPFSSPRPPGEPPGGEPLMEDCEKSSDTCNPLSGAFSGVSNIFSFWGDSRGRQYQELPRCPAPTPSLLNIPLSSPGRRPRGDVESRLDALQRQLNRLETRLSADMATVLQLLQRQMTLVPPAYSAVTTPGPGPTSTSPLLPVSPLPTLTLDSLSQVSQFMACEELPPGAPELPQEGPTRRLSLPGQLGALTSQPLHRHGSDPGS
# Assay: primary screen, population patch clamp on CHO cells stably expressing hERG
# 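Further: peak tail current of the secondary pulse compared with the same well before compound.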
row,SMILES,"hERG current change (%, negative = inhibition) at 10uM [%]"
1,C/C(=N\Nc1ccc(C(=O)O)cc1)c1ccc(Br)cc1.O=S(=O)(O)O,23
2,O=C(Nc1nccs1)c1cc(-c2ccncc2)nc2ccccc12,1.89
3,CSC1=NCCN1C(=O)c1ccc(S(=O)(=O)N2CCCC2)cc1,10.1
4,COc1ccccc1NC(=O)COc1ccc(/C=N/NC(=O)CSCc2cc(C)cc(C)c2)cc1,3.56
5,Cc1ccccc1C(=O)NNC(=O)CCC(=O)Nc1cccc(Cl)c1C,-18.3
6,COCCN(Cc1nc(C2(c3ccc(C)cc3)CCCC2)no1)C(C)C,0.613
7,Cn1c(=O)c(-c2ccccc2)c(O)c2ccccc21,1.91
8,CCN1CCN(CC(=O)N2N=C(c3ccc(OC)cc3)CC2c2ccc(OC)cc2)C(=O)C1=O (centres unmarked),3.87
9,COc1cc(-c2cc(N)n(S(=O)(=O)c3ccccc3)n2)cc(OC)c1OC,7.46
10,CCCC(C)n1[nH]c(=O)c2c1NC(=O)CSC2c1ccc(OC)cc1 (centres unmarked),1.91
11,COc1cccc(C(=O)NNC(=O)c2ccc(NS(=O)(=O)c3cccs3)cc2)c1OC,0.566
12,CCCc1cc(=O)[nH]c(SCc2cccc(C)c2)n1,7.44
13,COc1cc(C(=O)O[C@H]2CC(C)=CC[C@@]3(C)CC[C@@](O)(C(C)C)[C@H]23)ccc1O,14.4
14,COc1cc(SC)ccc1C(=O)N(C)Cc1ccccc1,-17.5
15,Oc1ccc2c(c1)c1c3n2CCNC3CCC1 (centres unmarked),-8.45
16,Cc1ccc(-c2nn(-c3ccccc3)cc2C(=O)Nc2ccc(C(=O)O)cc2)cc1,19.1
17,COC(=O)C1=C(C)Nc2nc3ccccc3n2C1c1cc(OC)c(OC)c(OC)c1 (centres unmarked),1.96
18,CCOC(=O)C1CCN(C(=O)Nc2cc(Cl)cc(Cl)c2)CC1,-15.7
19,CC(=O)c1ccc(NC(=O)Nc2cccc(Cl)c2)cc1,12.2
20,O=C(NCC(=O)N1CCN(S(=O)(=O)c2ccc3c(c2)OCCO3)CC1)c1ccccc1Cl,11.7
21,Cc1nn(CCO)c(N)c1C1(O)C(=O)Nc2c(Cl)cc(Cl)cc21 (centres unmarked),17.8
22,CC(C)N1CCc2c(sc(NC(=O)c3ccc4ccccc4c3)c2C(N)=O)C1.Cl,-3.95
23,O=C(CCN1C(=O)c2ccccc2C1=O)NNC(=O)c1ccc(Cl)cc1Cl,6.82
24,Cc1cc(C(F)(F)F)nc(Nc2nc(C)c3ccccc3n2)n1,6.9
25,Cn1c(Cc2cccs2)nnc1SC/C=C/c1ccccc1,-0.882
26,CCOc1ccc(N2C(=O)CC(NCCNc3ccc(C(=O)c4cccs4)cc3)C2=O)cc1 (centres unmarked),-71.5
27,Cn1c(C(=O)N2CCOCC2)cc2c(=O)n3ccccc3nc21,10.3

row,SMILES,"hERG current change (%, negative = inhibition) at 10uM [%]"
1,COc1ccc(Nc2nc(N3CCCC3)nc(N3CCCC3)n2)c(OC)c1,2.29
2,Cc1nn(C)c(C)c1C(C)NC(=O)c1ccc(OC2CCN(Cc3ccccn3)CC2)cc1 (centres unmarked),18
3,NNC(=O)c1ccc(Cn2cc(Br)cn2)cc1,-2.07
4,C=CCc1cccc2cc(C(=O)Nc3cccc(C(=O)O)c3)c(=O)oc12,-5.14
5,CC(=O)Nc1ccc(Nc2nc(-c3sc(C)nc3C)cs2)cc1,13.5
6,O=C1C(NS(=O)(=O)c2ccc(Br)cc2)=C(N2CCCCC2)C(=O)c2ccccc21,-33.1
7,CCOC(=O)C1CCN(C(=O)c2cc(COc3ccc(OC)c4ccccc34)on2)CC1,4
8,CN(C)c1ccc(P(=O)(OC2CCCCC2)C(O)c2ccccn2)cc1 (centres unmarked),-0.561
9,Cn1c(=O)c2c(ncn2CC(=O)NC(C)(C)C)n(C)c1=O,9.95
10,COc1cc(C(=O)N/N=C/c2ccc(OC(=O)c3cccc(C)c3)cc2)ccc1O,11.8
11,O=C(Nc1ccc(Br)cc1)c1ccc(N2C(=O)C3CC=C(Cl)CC3C2=O)cc1 (centres unmarked),5.08
12,COCCCN(C(=O)c1ccc(N2CCCC2=O)cc1)c1c(N)n(Cc2ccccc2)c(=O)[nH]c1=O,-1.8
13,Cc1cc(Cl)ccc1NC(=S)NCCc1ccc(S(N)(=O)=O)cc1,-16.1
14,Cl.Nc1ccc(Cc2ccccn2)cc1,15.1
15,CC1CCC(C(C)C)C(OC(=O)Cn2nnc3c(cnn3-c3ccccc3)c2=O)C1 (centres unmarked),3.74
16,COc1ccc(OC)c(C2N(c3cc(C)on3)C(=O)C3CCCN32)c1 (centres unmarked),10.8
17,Cc1nn(C)c(Cl)c1S(=O)(=O)N[C@@H](c1ccccc1)[C@]1(C)C[C@H]1[C@@H](C)C(=O)Nc1ccc2ccccc2c1,12.8
18,CCCn1c(=O)c(C(=O)NCCCc2ccccc2)c(O)c2ccccc21,10.6
19,COc1ccc(CCN2CC(C(=O)N(C)CCOc3ccccc3)CCC2=O)cc1 (centres unmarked),-57.2
20,COc1cc(NC(=O)CCC(=O)Nc2ccc3nc(N4CCOCC4)cc(C)c3c2)cc(OC)c1OC,-15.1
21,CCc1cccc(C)c1NC(=S)NCc1ccc2[nH]c(C)cc2c1,-12.3
22,Cc1ccc(CC(NC(=O)c2ccccc2)C(=O)NCC(=O)O)cc1 (centres unmarked) (Bz-[ξPhe(4-Me)]-Gly-OH),-9.56
23,Cc1ccc(S(=O)(=O)N(C)CC(=O)Nc2nc3ccccc3s2)cc1,-12.1
24,COc1ccc(CCNC(=O)c2ccc(CNS(=O)(=O)c3cc(C)ccc3C)cc2)cc1OC,-25.7
25,C=CCn1c(CCC(O)CCCCC)n[nH]c1=S (centres unmarked),7.84
26,C=CCn1c(CCNC(=O)c2cccs2)nnc1SCC(=O)c1ccc(Br)cc1,-67.1
